# Assay results reported in PubChem BioAssay AID624296 (National Center for Advancing Translational Sciences (NCATS), 2012).
# Screen size: about 350,000 compounds; about 9,900 (2.8%) were called active. Inconclusive results, whose numbers are uncertain, are shown with a selection of clear calls. Calls come from the whole dose curve; as a rule, active = well fitted activation curve with a large enough effect; inconclusive = small, poorly fitted or top-dose-only effect; inactive = no such curve, though single readings can be large or run the other way. No potency is given beside an inconclusive call; the fits are too rough.
# Experiment: A quantitative high throughput screen for small molecules that induce DNA re-replication in MCF 10a normal breast cells. Note: nearly all actives have a fitted effect of over 50% in size.
# Settings: MCF 10A DNA re-replication, Hoechst nuclear intensity, 48 h; series mostly up to 46.1 µM
# Potency is the fitted concentration of half-maximal effect; tags give direction and shape of the fitted curve.
row,SMILES,Potency
1,O=C(NC(O)C(=O)c1ccccc1)c1cccs1 (stereo not given),"inconclusive [activator, single point]"
2,CCN(CC)CCNC(=O)c1ccc(NC(=O)c2c(C)nn(-c3ccc(F)cc3)c2Cl)cc1,"inconclusive [activator, single point]"
3,CCOC(=O)c1ccccc1Nc1cn(C(C)=O)c2ccccc12,"inconclusive [activator, full curve]"
4,CCOc1ccc(OCC(=O)OCC(=O)Nc2ccccc2C#N)cc1,inactive
5,CCCOc1cccc(C(=O)Nc2ccc(Br)cc2F)c1,inactive
6,O=C(O)[C@@H]1CSCN1,inactive
7,O=c1c2ccccc2n(Cc2ccc(F)cc2)c(=O)n1C1CCCC1,"inconclusive [activator, single point]"
8,COC(=O)c1cc(NC(=O)c2cc(-c3ccc(Cl)cc3)oc2C(F)(F)F)ccc1N1CCOCC1,"inconclusive [activator, single point]"
9,COc1nc(-c2cccs2)cc(-c2ccc(C)cc2)c1C#N,"inconclusive [activator, partial curve, poor fit]"
10,Cc1cccc(OCCNC(=O)c2ccc(Oc3ccc(C(F)(F)F)cc3[N+](=O)[O-])cc2)c1,inactive
11,Cc1cccn2cc(-c3ccc(NC(=O)Cc4ccccc4)cc3)nc12,"inconclusive [activator, single point]"
12,CC1=CC(C)(C)n2c(O)c(N=N)c3cc(C)cc1c32,"inconclusive [activator, partial curve]"
13,C#CCNC(=O)C1=C[C@H](c2ccc(C(F)(F)F)cc2)C[C@H](OCc2ccc(CO)cc2)O1,active: 4.11 µM
14,CCOC(=O)C=C(C(=O)OCC)C(=O)OCC,inactive
15,COC(=O)[C@@H](Cc1ccccc1)NC(=O)NCCc1c[nH]c2ccccc12,inactive
16,Cc1cc(C)c(OCCN2CCOCC2)c(Cl)c1,"inconclusive [activator, partial curve, poor fit]"
17,Cc1ccc2nc(NC(=S)NC(=O)c3ccc(OC(C)C)cc3)sc2c1,"inconclusive [activator, partial curve, poor fit]"
18,Cc1c(OCC(=O)N2CCC(C(=O)O)CC2)ccc2c3c(c(=O)oc12)CCCC3,"inconclusive [activator, full curve, poor fit]"
19,CC(NC(=O)c1ccccc1)c1nnc(SCC(=O)Nc2nnc(C3CC3)s2)n1C (stereo not given),inactive
20,CC[C@]12c3[nH]c4cc(-c5ccco5)ccc4c3CCN1C(=O)[C@@H](CC(=O)NCCCOC)C[C@@H]2C(=O)N1CCN(C(=O)c2ccco2)CC1,"inconclusive [activator, single point]"
21,Cc1cc(C(=O)N2CC=C(c3ccccc3)CC2)c2ccccc2n1,"inconclusive [activator, partial curve, poor fit]"
22,O=C(/C=C/c1ccco1)Nc1ccc2nn(-c3ccccc3)nc2c1,active: 7.31 µM
23,COc1ccc(C(NC(=O)CC(C)C)c2c(O)ccc3ccccc23)cc1 (stereo not given),"inconclusive [activator, single point]"
24,COc1ccccc1NS(=O)(=O)c1ccc(NC(=O)c2nc3ncccn3n2)cc1,"inconclusive [activator, partial curve, poor fit]"

row,SMILES,Potency
1,O=C(CCN1CCN(c2ccc([N+](=O)[O-])cc2)CC1)c1ccc(Cl)cc1,"inconclusive [activator, single point]"
2,NC(=O)c1cc(S(=O)(=O)NCc2ccccc2)cs1,"inconclusive [activator, partial curve, poor fit]"
3,Cc1ccc(C(=O)CSc2ccccc2C(=O)O)cc1,inactive
4,CCN(CC)CCn1c(SCC(=O)NCc2ccco2)nc2c(sc3ccccc32)c1=O,inactive
5,C/C=C/c1ccc(OCCN2CCc3ccccc3C2)c(OC)c1,"inconclusive [activator, full curve, poor fit]"
6,CC(NC(=O)c1ccco1)C(=O)Nc1nc(-c2ccccn2)cs1 (stereo not given),"inconclusive [activator, single point]"
7,COC(=O)c1ccccc1-c1ccc(/C=N/NC(=O)c2cc3ccccc3o2)o1,"inconclusive [activator, single point]"
8,O=C(OC(C(=O)Nc1ccc(Cl)c(C(F)(F)F)c1)c1ccccc1)C1=COCCO1 (stereo not given),"inconclusive [activator, single point]"
9,CC(=O)c1c(C)[nH]c(C(=O)Nc2nc(-c3ccc(Cl)cc3)cs2)c1C,active: 23.1 µM
10,O=C(Nc1nnc(-c2ccccc2F)s1)Nc1ccccc1F,inactive
11,CCC(=O)Nc1c2c(nn1-c1ccc(C)cc1)CS(=O)(=O)C2,inactive
12,COc1ccc(/C=C/C(=O)C2C(=O)C=C(C)OC2=O)cc1O (stereo not given),"inconclusive [activator, single point]"
13,CN1CCC2(CC1)C1CN(C)CC=C1C(C#N)=C(N)C2(C#N)C#N (stereo not given),"inconclusive [activator, single point]"
14,O=C(c1ccc(NC(=S)Nc2ccc(Cl)c(Cl)c2)cc1)N1CCCC1,inactive
15,Cc1ccc2ccc(C(Nc3ccccn3)c3ccccc3)c(O)c2n1 (stereo not given),inactive
16,CCOC(=O)Cn1nnc(-c2ccc([N+](=O)[O-])cc2)n1,inactive
17,COc1ccccc1/C=C/C=N/n1c(-c2ccncc2)n[nH]c1=S,"inconclusive [activator, full curve]"
18,Cc1cc(N2CCOCC2)nc2ccc(NC(=S)N3CCCCC3C)cc12 (stereo not given),active: 14.6 µM
19,N#C/C(=C\c1ccc(N2CCOCC2)o1)c1ccccc1,inactive
20,CCOC(=O)CN1C(=O)C(Sc2n[nH]c(-c3ccc(C)cc3)n2)CCc2ccccc21 (stereo not given),inactive
21,O=C(Nc1ccc(F)cc1F)C1CCCN(c2ncnc3c2nc2n3CCCCC2)C1 (stereo not given),"inconclusive [activator, partial curve, poor fit]"
22,CCCCN(C)CCNC(=O)c1cn(C)c(=O)c2c1c1ccccc1n2C,inactive
23,CCc1ccccc1NC(=O)C1CCCN(c2ncnc3onc(-c4ccc(F)cc4)c23)C1 (stereo not given),"inconclusive [activator, partial curve, poor fit]"
24,Cc1ccc2cc(CCNC(=O)CC(C)(C)C)c(=O)[nH]c2c1C,inactive

row,SMILES,Potency
1,CCOC(=O)c1oc2cc(O)ccc2c(=O)c1-c1ccc(OC)cc1,"inconclusive [activator, single point]"
2,CCCCC(CC)Cn1c(O)c(/C=C2\C=NN=C2c2ccccc2)sc1=S (stereo not given),"inconclusive [activator, single point]"
3,COc1ccc(S(=O)(=O)NCCCn2ccnc2)cc1Cl,inactive
4,O=C(CCCN1C(=O)/C(=C/c2cccs2)SC1=S)Nc1cccc(O)c1,"inconclusive [activator, single point]"
5,CC1c2cc3c(cc2CCN1C(=O)c1cccc(Cl)c1)OCCCO3 (stereo not given),"inconclusive [activator, partial curve, poor fit]"
6,COc1cc(C)cc(CN2CCC(Cc3ccccc3)CC2)c1O,"inconclusive [activator, partial curve, poor fit]"
7,C/C(=N\NC(=S)Nc1c(C)cccc1C)c1ccc(OC(F)F)cc1,"inconclusive [activator, full curve, poor fit]"
8,COc1cc(OC)cc(C(=O)Nc2cc(-c3cn4cccnc4n3)ccc2C)c1,"inconclusive [activator, partial curve, poor fit]"
9,NC(=O)c1ccccc1NC(=S)NC(=O)CCc1ccccc1,active: 5.8 µM
10,NNc1nnc2c3cc(F)ccc3n(CCc3ccccc3)c2n1,"inconclusive [activator, partial curve]"
11,OC(COc1cccc2ccccc12)CN1CCN(c2ccc(Cl)cc2)CC1 (stereo not given),"inconclusive [activator, single point]"
12,O=C(Cn1nc(C(=O)O)c2ccccc2c1=O)Nc1ccccc1C(F)(F)F,inactive
13,COc1cc2c(cc1NC(=O)COc1ccc3ccccc3c1)oc1ccccc12,"inconclusive [activator, partial curve]"
14,O=C(/C=C/c1ccc(Cl)c(Cl)c1)NCCCn1ccnc1,"inconclusive [activator, partial curve, poor fit]"
15,COC(=O)C(CCSC)NC(=O)c1cc2c(n(-c3ccccc3)c1=O)CCCC2=O (stereo not given),"inconclusive [activator, single point]"
16,CNC(=S)N1N=C2c3ccccc3CCC2C1c1ccccc1Cl (stereo not given),"inconclusive [activator, single point]"
17,CSc1nc(Sc2ccccc2)c2ccccc2n1,"inconclusive [activator, single point]"
18,O=C(Nc1ccccc1)Nc1nnc(COc2ccccc2F)s1,"inconclusive [activator, single point]"
19,O=C(c1cc(-c2ccc(Cl)s2)nc2ccccc12)N1CCCC1,"inconclusive [activator, partial curve, poor fit]"
20,Cn1cc(Br)c(-c2cccc(NC(=O)CC(C)(C)CC(=O)O)c2)n1,inactive
21,O=C(Nc1nccs1)c1cc(-c2ccccc2)nc2ccccc12,"inconclusive [activator, single point]"
22,CCCc1nc2oc3ccccc3c(=O)c2c(=O)n1-c1ccc(C)cc1,"inconclusive [activator, partial curve, poor fit]"
